Source: the supplement of paper PMC12632987
Over roughly 4,500 sequences, “median log2 fold change of GCK-ALFA target abundance (FLAG IP / Myc IP barcode read proportion)” has its median near 0.078; the lowest 2% begin near -0.6. This is one part of the list.

B1: GBRAP_52_6215 (protein)
chain: MEEEIEKMAEKIAEALIAGDEEKLEKLVKEAIEKFSLEELEEIAARTGAILARRLAGDEERIVALIDKFEEAALKAGLSEDDALLLEGAAEAAAIKELLA
B2: GBRAP_74_6509 (protein)
chain: MEEKLAALKAAAAAKDAKEVAELLKEIVEEGSLETIEEAAKIAVAFVKENLDKLSKEELEALADALAALADKLMELGGDSETVLAVVNAAIALEKKLAAL
B3: GBRAP_128_3443 (protein)
chain: SQEELLEKAKELLDKIVESDVEEAKKLTKELAEVLKELDEEGRDEVLEYFEEKAKELSEEKLEAVADALREEIPKADPLTANYLAGMIVIAGERILELEE
B4: GBRAP_78_6688 (protein)
chain: EIEELLDKAIEHLGKAAKILAKMNTEEALDLLGKVIDAASLIEEALLGETKLETLEEARKLLEEVIKELEKIDTEEAKEAKKHVEEALKHVEEAIKLLKK
B5: GBRAP_184_5176 (protein)
chain: MIEEYELKIENVEEAKKKIKEIGEEVKGKKAELYVLIDVPEVTKEIAKAIMDGLKEIKDNGNVTKITVDLNGKMTEEVLDYAIKLAKEAGVNLVVALDEE
B6: GBRAP_52_6361 (protein)
chain: ALEEALALLREALEAVKAGKEEEARAILKELVERFSDEVILAAARRLAEELKDKDAESAEAFLELALMLEDELLEAGRDEVVADEIAAIAARTYMEVLAK
B7: GBRAP_52_6356 (protein)
chain: MKEELEKKAEELVKAVLEGKEEEARKLAKEIVEELSDEELDELFKVLAERARESDPETAEAIVEAAIILSDELIKAGRDEYEASLREADVAGAAYENLQA
B8: GBRAP_74_6530 (protein)
chain: DEEVLKKIEEAAEAGDLEKAIEIAEEAVDKLSPENLVKALLIVLELFEERREEATPEELDRVVDLIVRVESKVDDLDFPDELLELIARALALAVEREEAE
B9: GBRAP_160_4601 (protein)
chain: MEEVEKLLKEIREIIEEAIKLIEGESPENRLVIIEVAMGEILLEIDSSEIVSEELEEFADEELDAVVDWVRANPEASVEEIRKLLEEAFEKIEKALKEEH
B10: GBRAP_52_5852 (protein)
chain: MREEARKIAQELVKLQLAGDEEGLEKKLKEIVETKSEEEILLILDELAELAKTASPEEVDAIVDVAIKLSDIAEEAGFDEWELSAAEARVGKAAYENLQK
B11: GBRAP_160_4782 (protein)
chain: AEKKAKLKAAIDAAAAEIREAIDTESPAQVLTVARGEMGDILQEAEELGFDNDELLDALAAAGDELVAALAAAADASPAEKRAVVDAARAKMIATLDKLT
B12: GBRAP_122_2954 (protein)
chain: NSEERVERLVEETVERAKKENPAEVFFEAIKRAAEELSPEDVIRFAELLAERAKELGWEAEAAKAFAAAAVWLEKEKPELAEAADHLADLADELFDRLME
B13: GBRAP_52_5962 (protein)
chain: MREEMEALLDEALALMRAGDREGARALLREIARTLNDEELRLLADVLVERIEASDLETAELLLEIAILLADVLEEEGRDPRIASDLLGRAAAAAYKLEQK
B14: GBRAP_128_3390 (protein)
chain: SQEEKVEEAKELIDKIIEADVEEAKKLAEEFMKLFGELSKEDQEIVAEYFESKLPEMTAEKLEVVADVIREKRPELDPYGQELAAGMEVEALNEAEEKEE
B15: GBRAP_80_6864 (protein)
chain: MEEAIEEALKLAEEVSEEIAELFRELIEELKKLGVSEEDIKRIAEIIKDIIELDPELALEALKEMVEEAKKYLKEGKGEEALVVVEGIAGEALMEAEEKQ
B16: GBRAP_11_2928 (protein)
chain: KKEEIKRIAELAEKLAEAIDRLIAEGTDDEELRAEATRLLEELTKLVEKYGDEADRKDAEIMRELWEKALADPENAEQYLTELRNEALVLSGNYLLEYDE
B17: GBRAP_14_3778 (protein)
chain: MEEIERILREEAAEIIELLSELAPAKAAEFEAAVTEVTEETIARIKETGDVHAAVDEGEERLVARIDEILADEPPEVRARALAIVRVEMGNALLEIDELL
B18: GBRAP_52_5959 (protein)
chain: MEERMRRLVEEALELARAGREEELDALLREIAETLNEEELELLAEEMARRVEESDLETAEILLDIAIRLGDVLIEEGRDEGIASYIEARVAAAAYKLEQK
B19: GBRAP_160_4270 (protein)
chain: SPELEELIEDLEEDRDEILEDVDRISPEEVRVEAVTELGSHLMEAVDLGLVTDEQEDELAEIIDELEAELAAAADASPEEIKAIIERHYDEAIELLKKAK
B20: GBRAP_95_7050 (protein)
chain: DDDQLALESTFEVLETYLDLGDKENAERAAEEAVKLLKELGYDAVPDDISLEAGKLLIKVAAKTESKEDVLKLTEALKAKAKTEEDKKELEKVAEEALAA
B21: GBRAP_160_4096 (protein)
chain: SEKVEELIKEIEELEEETKKMIEGENIEQRATILRGFGGDVLMLLFESGIAPEEVEDFADEKFDELVETVEANPDLTLEEIKELLEEVVEEVKEKIKELG
B22: GBRAP_83_6902 (protein)
chain: AEKVTVAGPGDKAEELADIVIDLSKEEGYEVVVEVIVTPETVEKVLEMAKRLAEAGVEVELEVLAVGMTEEQAKELEEKIKKIAEEYGVNIKVKVYVEKP
B23: GBRAP_128_3377 (protein)
chain: INKEKLEEVRKLVEEAIESNVEETAKLTREIIELMGTASKEEKEEIAEIVIENLPKFSKEKLEVIADVIREMRPKADPYGQELLNEVEVEALNEAEELEE
B24: GBRAP_11_2694 (protein)
chain: KKEELKKAAKLAEELAKLLEELLKEGVDNEKLQKEIEKKLEELEKLAKKYGDEGLKKLTEIAKELWKKAKEDPENKEKYLKEALAAARVLEGQYLLEIEE
B25: GBRAP_80_6851 (protein)
chain: AEAALAAALAALAAVLPEAAADAREIVALARALGVPLEVITDYLNAVTELAKLDPALAKALLRELLADLREEAAAGDRANAEAVLRGYAGEALLLAEELE
B26: GBRAP_122_2953 (protein)
chain: NKEEEVERLVKETLERAEKENPTETFIEAIKRAAEELDEESVIRFAEKLAEKAREKGWEAEALKAFATAAKWLYENKPELEEAADRLAELADELADLLLE
B27: GBRAP_52_5997 (protein)
chain: REERIEALARELVEATLAGDDERVRALLRRIAAELSDEEIVETVRLATRLLERDPRATLEDLANFIDLVEDVLEEEGKSDELIARVLGAIAEAIYEAELE
B28: GBRAP_125_3086 (protein)
chain: AVERALEAAGTILRAAGFSDEDVEEFKKLSADSTVKAVFNALAYLLLDEEMALKAEELTEEEALAVLERVAAEIAAHPDLTPEEVRALLAAAIEEALAAS
B29: GBRAP_128_3556 (protein)
chain: STEEKVARAEELLEKIKNSDEEEARRYAEELVALLASVDPETREAIVALILERLPELSVEQLEILADVFREQRPRVDPDVAEALADIEVEALNEALEKEE

Each binder was assayed against GABARAP, O95166 (assay: median log2 fold change of GCK-ALFA target abundance (FLAG IP / Myc IP barcode read proportion) (log2 ratio); each designed protein is fused to an ALFA-tag nanobody in HEK293 cells to bring the named protein to FLAG-tagged glucokinase (GCK); Myc marks an untargeted standard; higher = target protein stabilised (more abundant)). Settings: target protein: 3xFLAG-MCP-GCK-ALFA reporter; HEK293 landing pad (RPLP).
Sequence of GABARAP, O95166 (O95166 whole entry, the tested form may be a part): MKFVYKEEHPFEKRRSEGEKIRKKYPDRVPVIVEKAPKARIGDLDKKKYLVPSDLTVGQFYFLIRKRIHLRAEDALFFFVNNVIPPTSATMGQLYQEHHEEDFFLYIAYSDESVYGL
Method in brief: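 HEK293 landing-pad cells received a recombined binder library fused to the ALFA nanobody and were induced with 2 μg mL^−1 doxycycline, then transfected with a plasmid encoding a FLAG-tagged target and a Myc-tagged standard. Lysates were collected after 48 h for anti-FLAG and anti-Myc immunoprecipitation, and the circular RNA barcodes were reverse transcribed, amplified and sequenced. Target abundance for each binder is the median log2 ratio of FLAG to Myc barcode read proportions. Barcodes had to reach a proportion of at least 10^−7 in both replicates, each binder needed at least 3 barcodes per replicate, a pseudocount of 10^−6 was applied, and the two replicates were pooled.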

Binder	median log2 fold change
B1	0.103
B2	0.126
B3	-0.0144
B4	-0.163
B5	-0.0925
B6	-0.179
B7	0.0654
B8	-0.0476
B9	-0.451
B10	-0.359
B11	0.219
B12	0.157
B13	-0.585
B14	0.262
B15	0.127
B16	0.126
B17	0.104
B18	-0.532
B19	-0.168
B20	0.292
B21	0.0128
B22	-0.234
B23	-0.00489
B24	0.166
B25	-0.217
B26	0.241
B27	-0.74
B28	0.13
B29	0.156
